Reference: publication PMC8355542, “The Orphan Crop Crassocephalum crepidioides Accumulates the Pyrrolizidine Alkaloid Jacobine in Response to Nitrogen Starvation” (Frontiers in Plant Science, 2021)
Like-named read-outs stand apart in the source and are kept apart here.

Biological target: SjHSS version (HSS1) (Jacobaea vulgaris, UniProt Q5ZN56)
Conditions: TEA buffer pH 9.5, EDTA, DTT, 30 °C, 1 h

Compound	HPLC of dansylated polyamines, homospermidine and 1,3-diaminopropane formation (with spermidine and NAD+)	HPLC of dansylated polyamines, homospermidine and 1,3-diaminopropane formation (with putrescine and NAD+)
NCCCCN [putrescine]	in vitro enzyme assays with spermidine and putrescine as substrates were carried out	
NCCCCNCCCN [spermidine]		in vitro enzyme assays with spermidine and putrescine as substrates were carried out
